# Laboratory results: ChEMBL document CHEMBL4888484, “Replenishing the malaria drug discovery pipeline: Screening and hit evaluation of the MMV Hit Generation Library 1 (HGL1) against asexual blood stage Plasmodium falciparum ,using a nano luciferase reporter read-out” (2022)
# Among all 150,000 compounds or so, about 540 (0.36%) showed an effect of 50% or more. This is one part of the list.
# Tested on: Plasmodium falciparum
# Assay: Primary screen in NF54 nanoGlo assay, in single point, at 2uM, 72h; a lower Z score goes with more inhibition
# Format: functional, Erythrocyte
# Conditions: timepoint 72 hour
Structure (SMILES),% Inhibition [%],Z score
COc1cc(C(=O)N2CCC[C@H](C(=O)O)[C@@H]2C)ccc1Cl,-17,1.97
Cc1n[nH]c(C2CN(CC(=O)N(C)C(C)c3cccs3)CCO2)n1 (stereo not drawn),2,-0.4
CCn1cc(CN2CC[C@H](N(CCc3noc(C4CCC4)n3)C(C)=O)C2)cn1,-8,1.3
O[C@H]1CN(Cc2ccc3c(c2)OCO3)CCN(c2ccncc2)C1,-6,0.71
Cc1cnc(N(C)CCCc2nccn2C)nc1N(C)C,6,-1.18
CN1CCN(Cc2noc(C[C@@H]3C[C@@H]4C=C[C@H]3C4)n2)CC1,-23,2.15
CC(C)(CO)NC(=O)Nc1ccccc1,-4,0.73
CC(C)n1cc(S(=O)(=O)N(C)CCOc2cccc(F)c2)cn1,-17,3.29
O=C(N[C@@H]1CN(Cc2cccnc2)C[C@H]1CO)c1cccnc1,-11,1.92
CC(=O)N(C)CC(=O)N1C(C)CN(C(=O)OC(C)(C)C)C(C)C1C (stereo not drawn),-5,0.92
OC[C@@H](NCC1OCCO1)c1ccccc1,-10,1.33
O=C(N[C@H]1C[C@@H](C(=O)O)C1)c1cc(C2CC2)[nH]n1,-10,1.31
O=C(c1ccccn1)N1C[C@H]2CC[C@@H](C1)N(Cc1ccccn1)C2=O,-4,0.71
COc1cc2c(cc1OC)CN(C(=O)C[C@@H]1NC(=O)NC1=O)CC2,-5,0.81
CN1C[C@@H](Nc2ncnc3ccccc23)CCC1=O,-5,1.05
CC(C)(COC(=O)Nc1cccc(Cl)c1)NC(=O)COc1ccccc1,-1,0.08
CC(C)(C)n1nnc(CC(=O)Nc2ccc(-c3nc4ccccc4s3)cn2)n1,-5,0.81
COc1ccc(CN2CCN3CCCC3C2C)cc1O (stereo not drawn),-2,0.3
N#Cc1c(N)sc2c1CCN(c1ncccn1)C2,-15,1.27
Cn1nnc2c(S(=O)(=O)N[C@H]3CCOC[C@@H]3OCC3CCC3)cccc21,-8,1.36
O=C1CNC(=O)[C@]12CCCc1ccccc12,4,-0.66
O=C(NCCc1cscn1)Nc1ccn(-c2ccccc2)n1,-11,1.67
CCC1CCC(C)N1CC(=O)Nc1cc(-n2nnnc2C)ccc1F (stereo not drawn),-9,0.91
CCc1nc(CN2C(=O)COc3cc(S(=O)(=O)NC4CCCCC4)c(C)cc32)no1,2,-0.26
